# Laboratory results: PubChem BioAssay AID1346428 (National Center for Advancing Translational Sciences (NCATS), 2018)
# Values joined by “and” are separate entries in the source; they are usually repeats but may differ in a detail not shown here. Equal values may be shown once. About 1,200 (2.5%) of roughly 48,000 compounds were called active. Roughly 2% stayed inconclusive and do not appear here.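 How the source made its calls: active means activation of at least 60% and not above a set upper limit (about 1 call in 100 departs from these limits); inconclusive means activation of 40% to 60%, or above that upper limit; inactive means activation under 40%.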 The list shows a part of the results.
# Target: Probable G-protein coupled receptor 32 (Homo sapiens) (UniProt O75388)
# Experiment: qHTS for Agonists of Human Resolvin D1 Receptor DRV1; further: 0% is about no effect
# Details: CHO-K1 GPR32 beta-arrestin PathHunter luminescence, 90 min; at 76.9 µM; active compounds read high; zero percent set by DMSO-only wells
# Procedure, shortened: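 Agonism was scored as beta-arrestin recruitment to ProLink-fused GPR32 in stably transfected CHO-K1 cells, giving a chemiluminescent beta-Gal signal; compounds were incubated 90 min at 37 °C.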
# Chain of UniProt O75388 (O75388 whole entry, looked up): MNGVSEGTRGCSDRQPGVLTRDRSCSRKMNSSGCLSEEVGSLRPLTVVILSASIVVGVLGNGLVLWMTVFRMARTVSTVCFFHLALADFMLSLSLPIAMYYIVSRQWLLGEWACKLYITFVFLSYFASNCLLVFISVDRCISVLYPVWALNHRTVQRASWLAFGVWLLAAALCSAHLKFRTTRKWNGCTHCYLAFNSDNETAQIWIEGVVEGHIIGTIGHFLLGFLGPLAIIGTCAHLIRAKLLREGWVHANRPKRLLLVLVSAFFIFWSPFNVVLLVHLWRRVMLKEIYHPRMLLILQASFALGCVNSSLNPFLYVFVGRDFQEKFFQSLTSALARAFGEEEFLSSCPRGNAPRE
row,Structure (SMILES),activation
1,Cc1ccc(NC(=O)c2cn3c4c(ccc(Cl)c4c2=O)OC(C)C3)c(C)c1 (centres undefined),inactive: 9.11%
2,COc1ccc(-n2ncc(C(=O)N3CCN(c4ncccn4)CC3)c2C2CCN(C(=O)OC(C)(C)C)CC2)cc1,inactive: -0.907%
3,Cc1nc2sccn2c(=O)c1CCN1CCC(=C(c2ccc(F)cc2)c2ccc(F)cc2)CC1,inactive: 13.1% and inactive: -17.6%
4,Cc1ccccc1Nc1c(-c2ccc(Cl)s2)nc2c(C)cccn12,inactive: -19%
5,COc1ccc(CNC(=O)c2cc(-c3cccc(Cl)c3)on2)cc1,active: 65.9%
6,CCOc1ccccc1NC(=O)Cn1c(=O)n(CCCC(=O)NCCc2ccc(C)cc2)c(=O)c2ccccc21,inactive: 5.41%
7,COc1ccc(-c2c(C)c3cc(OC(=O)N4CCOCC4)ccc3oc2=O)cc1,inactive: 8.2%
8,CC(C)(C)OC(=O)N1CCC(c2c(C(=O)NCCCN3CCc4ccccc4C3)cnn2-c2ccccc2)CC1,inactive: -32.9%
9,Cc1ccc(N2CC(NC(=O)c3ccc(S(=O)(=O)N4CCCC4)cc3)CC2=O)cc1 (centres undefined),inactive: -3.96%
10,COc1ccc(OC)c(NC(=O)CCc2c(C)nn(-c3ccc(N4CCCC4)nn3)c2C)c1,inactive: -8.69%
11,C[C@H](CCC(=O)O)[C@H]1CC[C@H]2[C@@H]3C(=O)C[C@@H]4CC(=O)CC[C@]4(C)[C@H]3CC(=O)[C@]12C,inactive: -4.38%
12,CC(C)c1ccc(NC(=O)c2ccc3c(c2)CCCN3S(C)(=O)=O)cc1,inactive: 31.9%
13,O=C(Nc1ccc2c(c1)CCCN2C(=O)c1cccs1)c1c(F)cccc1F,inactive: 4.26%
14,COc1ccc(-c2nc(C)c(CCNC(=O)C(=O)Nc3c(C)cccc3C)s2)cc1OC,active: 70%
15,O=C(Cn1cc(SCc2ccccc2)c2ccccc21)N1CCCCC1,inactive: -16.1%
16,CSc1ccc(CNC(=O)C2CCN(c3nnc(-n4cccc4CNc4ccc(C)cc4)s3)CC2)cc1,inactive: -35.9%
17,N#Cc1c(-n2ncnc2-c2ccc(Br)cc2)sc2c1CCCCC2,inactive: -1.43%
18,COc1ccc(OC)c(CCNC(=O)C2CCN(c3ncnc4c3nc3n4CCCCC3)CC2)c1,inactive: 4.68%
19,CCc1ccc(CNC(=O)CN(c2ccc(C)cc2)S(=O)(=O)N(C)C)cc1,active: 87.2%
20,O=C(Nc1nnc(S(=O)(=O)N2CCCC2)s1)c1ccccc1Br,inactive: 41.3%
21,Cc1ccccc1OCCCn1c(-c2ccc(Cl)cc2)nc2ccccc2c1=O,inactive: -0.14%
22,COc1ccc(Nc2nc3cc(Cl)c(Cl)cc3n3cnnc23)cc1Cl,inactive: -2.75%
23,Cn1c(=O)oc2cc(S(=O)(=O)N3CCC(C(=O)NCc4ccc(F)cc4)CC3)ccc21,inactive: 29.1%
24,COc1ccc(NC(=O)CC2C(=O)N(c3ccc(C)cc3)C(=O)N2Cc2ccc3c(c2)OCO3)cc1 (centres undefined),inactive: -3.19%
25,Cc1ccccc1Cn1nnc2c(=O)[nH]c(C3CCCN(C(=O)c4ccc(F)cc4)C3)nc21 (centres undefined),inactive: -10.6%
26,CC1CCN(CCCNC(=O)c2cn(C)c3ccc(S(=O)(=O)N(C)C4CCCCC4)cc3c2=O)CC1,inactive: 4.78%
27,COc1cc2c(cc1OC)C(COc1ccc(C(C)C)cc1)N(C(=O)c1ccc(S(=O)(=O)N3CCCC3)cc1)CC2 (centres undefined),inactive: -4.29%

row,Structure (SMILES),activation
1,COc1ccc(N2CCN(S(=O)(=O)c3ccc4c(c3)CCCN4C(C)=O)CC2)cc1,inactive: 9.74%
2,CCC(C)n1c(SCc2c(F)cccc2Cl)nc2ccsc2c1=O (centres undefined),inactive: -17.6%
3,Cc1ccc(C)c(CN2C(=O)c3ccccc3S(=O)c3ccc(C(=O)N4CCN(c5ccccc5F)CC4)cc32)c1 (centres undefined),inactive: -1.26%
4,COc1cc(N2C(=O)CSC23C(=O)N(Cc2ccc(C)cc2)c2ccccc23)cc(OC)c1OC (centres undefined),inactive: -7.3%
5,Cc1ccc2c(c1)N(C(=O)CCC(=O)NCc1cccs1)CCO2,inactive: -12%
6,COc1ccc(Br)c(C(=O)Nc2cc3c(cc2N2CCCCC2)n(C)c(=O)c(=O)n3C)c1,inactive: 0.0826%
7,CCc1cc(C(=O)NC(C)c2ccccc2)no1 (centres undefined),inactive: -5.37%
8,CCc1ccc(-c2nc3cc(NC(=O)c4cc5ccccc5cc4OC)ccc3o2)cc1,inactive: 21.8%
9,COC(=O)c1cc(NC(=O)[C@H](CCS(C)(=O)=O)N2Cc3ccccc3C2=O)cc(C(=O)OC)c1,inactive: -9.08%
10,COc1cc(C2CC(=O)N(Cc3ccc(F)cc3)c3ccccc3S2)cc(OC)c1OC (centres undefined),inactive: 16.6%
11,COc1cc2c(cc1OC)C(COc1ccc(F)cc1)N(C(=O)c1ccc(S(=O)(=O)N3CCCC3)cc1)CC2 (centres undefined),inactive: 12%
12,COC(=O)c1ccccc1NC(=O)c1ccc2nc(Cc3ccccc3)oc2c1,inactive: -17.7%
13,COC(=O)c1ccccc1NC(=O)c1nc(S(=O)(=O)Cc2cccc(C)c2)ncc1Cl,inactive: 4.39%
14,O=C(CCCn1c(=O)c2ccccc2n(Cc2ccc(F)cc2Cl)c1=O)NCCc1ccc(Cl)cc1,inactive: -17.4%
15,Cc1ccc(-n2nc(CO)c(C(=O)NCc3cccs3)n2)cc1C,inactive: -5.5%
16,Cc1cccc(NC(=O)c2c(C)cc(C)nc2SCC(=O)Nc2c(C)cc(C)cc2C)c1,inactive: -24.1%
17,CCOc1ccc(-c2cc(-c3nc(-c4cc(OC)c(OC)c(OC)c4)no3)[nH]n2)cc1Cl,inactive: 6.77%
18,COc1cc(-c2noc(-c3ccc(N4CCCC4)c([N+](=O)[O-])c3)n2)cc(OC)c1OC,inactive: 1.25%
19,CC(=O)N1CCc2c(sc3c2c(=O)n(Cc2ccccc2)c(=O)n3Cc2cccc(Cl)c2)C1,inactive: 3.93%
20,COC(=O)c1ccc(Nc2nc(-c3ccc(C)cc3)nc3ccccc23)cc1,inactive: 4.39%
21,CC(=O)O[C@H]1C[C@@H]2CC[C@@H]3[C@H](CC[C@@]4(C)[C@H]3C[C@H]([N+]3(C)CCCCC3)[C@@H]4OC(C)=O)[C@@]2(C)C[C@@H]1[N+]1(C)CCCCC1,inactive: -4.33%
22,COc1ccc(-c2cn3nc(N4CCC(C(=O)NCc5cccc(Cl)c5)CC4)sc3n2)cc1,inactive: -2.43%
23,CC1=Nc2cc(C(=O)NC3CCC(C)CC3)ccc2Sc2c(C)ccc(C)c21 (centres undefined),inactive: -0.201%
24,COc1cc(C(=O)N2CCc3c([nH]c4ccccc34)C2c2ccc(F)cc2)cc(OC)c1OC (centres undefined),inactive: -31.5%
25,Cc1ccccc1Cn1cnc2c(oc3ccccc32)c1=O,inactive: -24.3%
26,CCC(=O)N1CCc2cc(CNC(=O)Cc3ccc(OC)c(OC)c3)ccc21,inactive: -14.6%
27,CCOc1ccccc1CNC(=O)C1CCN(C(=O)N2CCOc3ccc(Cl)cc32)CC1,inactive: -3.44%

row,Structure (SMILES),activation
1,CCN(CC)C(=O)Cn1ncc2c([nH]c3ccc(C)cc32)c1=O,inactive: -30.6%
2,COc1ccc(NC(=O)c2ccc3c(c2)N(Cc2cccc(Cl)c2)C(=O)c2ccccc2S3(=O)=O)cc1Cl,inactive: -12%
3,FC(F)(F)c1ccc2c(c1)ncc1c(-c3ccccc3)nn(-c3ccccc3)c12,inactive: 0.0603%
4,Cc1ccc(-n2nc(C(=O)NCc3ccc(F)cc3Cl)c3c4ccccc4n(C)c3c2=O)cc1,inactive: 11.6%
5,Cc1cccc(N2CCN(c3nc4ccc(C(=O)c5ccccc5)cc4n4cnnc34)CC2C)c1 (centres undefined),inactive: -8.97%
6,Cc1cc(C)n2nc(-c3ccc(Cl)cc3)nc2n1,inactive: -0.308%
7,Cc1cn2c(=O)cc(COC(=O)c3cccc(NC(=O)COc4ccccc4)c3)nc2s1,inactive: -22.6%
8,CCOC(=O)c1c(NC(=O)CSc2cn(CCNC(=O)c3ccc(OC)c(OC)c3)c3ccccc23)sc2c1CCC2,inactive: -3.65%
9,COc1ccc(OC)c(NC(=O)c2oc3c(c2C)-c2nn(Cc4ccc(Cl)cc4)cc2CC3)c1,inactive: -9.84%
10,O=C1c2c(O)ccc(O)c2C(=O)c2c(NCCNCCO)ccc(NCCNCCO)c21,inactive: -19.9% and inactive: -33.9%
11,CC(C)Oc1ccc(CNC(=O)c2ccc(CS(=O)Cc3ccccc3Cl)o2)cc1 (centres undefined),inactive: 11.5%
12,COC(=O)CN1C(=O)CSc2ccc(S(=O)(=O)Nc3ccccc3)cc21,inactive: -11.2%
13,Cc1cccc(OCCSc2nc3ccc(NC(=O)COc4ccccc4C)cc3s2)c1,inactive: 3.1%
14,CC(=O)Nc1ccc(NC(=O)Cn2cc3c(n2)CCCCC3)cc1,inactive: -7.27%
15,Cc1ccc2c(CC(=O)N3CCN(c4cccc(Cl)c4)CC3)coc2c1C,inactive: -35.7%
16,CCN(CC)S(=O)(=O)c1ccc2c(c1)c(=O)c(C(=O)NCCc1ccc(OC)c(OC)c1)cn2C,inactive: 4.41%
17,COc1cccc(CN(C(=O)c2oc3ccc(Br)cc3c2C)C2CCS(=O)(=O)C2)c1 (centres undefined),inactive: -23.8%
18,CCOC(=O)c1ccccc1NC(=O)c1c(-c2ccccc2)noc1C,inactive: -26.7%
19,CCC(=O)N1CCc2cc(Br)cc(S(=O)(=O)NCc3cccc(OC)c3)c21,inactive: -3.24%
20,Cc1coc2cc3oc(=O)c(CCC(=O)N4CCCCC4)c(C)c3cc12,active: 107%
21,COC(=O)CNC(c1ccccc1)c1cc(Br)ccc1NC(=O)c1ccc(Cl)cc1 (centres undefined),inactive: -6%
22,Cc1nc2ccn(Cc3ccccc3)c(=O)c2cc1C(=O)Nc1ccc(F)cc1Cl,inactive: -1.75%
23,Cc1ccccc1-c1ccnc2c(-c3ccc(F)cc3)c(C)nn12,inactive: 15.8%
24,Cc1ccc(-c2cc(N)n(Cc3cccc(Cl)c3)n2)cc1,inactive: 16.3%
25,COc1cccc(NC(=O)Cn2c(=O)n(-c3ccccc3)c(=O)c3c4c(sc32)CCCC4)c1,inactive: 8.86%
